# Experimental data taken from PubChem BioAssay AID1347417 (National Center for Advancing Translational Sciences (NCATS), 2020).
# Hit rate of the full screen: of about 120,000 compounds, about 5,300 (4.4%) were called active. Inconclusive results, whose numbers are uncertain, are shown with a selection of clear calls. Calls come from the whole dose curve; as a rule, active = well fitted inhibition curve with a large enough effect; inconclusive = small, poorly fitted or top-dose-only effect; inactive = no such curve, though single readings can be large or run the other way. Potencies of inconclusive entries are doubtful fits and often do not repeat.
# Experiment: qHTS Primary assay for Inhibitors of Plasmodium falciparum Dd2 growth in vitro; note: nearly all actives have a fitted effect of over 65% in size;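 for activity, negative = inhibition: plate controls were DMSO vehicle for no effect and reference drug for full effect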
# Conditions: P. falciparum Dd2 growth, SYBR Green, 72 h; activity, negative = inhibition: at 28.9 µM (top of the series) unless noted; series mostly up to 28.9 µM
# Method in brief: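 Readout: SYBR Green fluorescence, 485 nm excitation, 535 nm emission, after ~16 h lysis at 37C. Before that, Dd2-infected red cells (2.5% hematocrit) grew 72 h with compound, 29 uM top final concentration.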
# Potency is the fitted concentration of half-maximal effect; tags give direction and shape of the fitted curve.
SMILES,Potency,outcome,"activity, negative = inhibition"
COc1ccc(-c2nc(C(C)C)nc3c2CCN(C(=O)C2CCCC2)CC3)cc1,"inconclusive: 5.62 µM [inhibitor, single point]",,
COc1ccc(F)cc1S(=O)(=O)N1CCCC(Cn2c(C)nc3cccnc32)C1 (stereo not drawn),"inconclusive: 10 µM [inhibitor, single point]",,
CCOc1ccccc1NC(=O)Cn1cccc1-c1nc(-c2ccc(F)cc2)no1,active: 10 µM,,
CCOc1ccc2c(n1)CCN(C(=O)c1nn(C)c3ccccc13)C2,"inconclusive: 7.08 µM [inhibitor, partial curve, poor fit]",,
CCN(CC)CCCNC(=O)c1ccc2c(c1)N(Cc1c(F)cccc1Cl)C(=O)c1ccccc1S2,active: 0.447 µM,,
CN(C)S(=O)(=O)N1CCCC(Cn2c(C3CC3)nc3cccnc32)C1 (stereo not drawn),"inconclusive: 0.1 µM [inhibitor, full curve]",,
CCOCc1nc(C2CCCN(C(=O)c3ccc(OC)nc3)C2)no1 (stereo not drawn),,inactive,
Cc1cccc(-n2ncc(C(=O)N3CCc4ccccc4C3)c2C2CCN(C(=O)OC(C)(C)C)CC2)c1,,,inactive: -23%
Cc1oc2ccc(O)c(CN3CCCCCC3)c2c1C(=O)Nc1cccc(Cl)c1C,"inconclusive: 1.12 µM [inhibitor, full curve, poor fit]",,
OCC1CN(c2ncccn2)CC12CCN(Cc1cc(Cl)ccc1F)CC2 (stereo not drawn),"inconclusive: 11.2 µM [inhibitor, partial curve]",,
O=C(Cn1cccc1-c1nc(-c2ccc3c(c2)OCO3)no1)Nc1cc(F)cc(F)c1,active: 5.01 µM,,
COc1cc2nc(C)n(CC(=O)NC3CCCc4c3[nH]c3ccccc43)c(=O)c2cc1OC (stereo not drawn),"inconclusive: 12.6 µM [inhibitor, single point]",,
CC(C)CN1C(=O)c2ccccc2C(C(=O)NC(C)C)C12CCCC2 (stereo not drawn),,,inactive: -13.1%
Cc1ccc(C(=O)Nc2ccc3c(c2)N(C)C(=O)c2ccccc2S3)cc1,"inconclusive: 12.6 µM [inhibitor, partial curve, poor fit]",,
CC1CCN(C(=O)CSc2nc(-c3ccc(C(C)C)cc3)no2)CC1,active: 0.891 µM,,
CCC1CCCCN1CCCNC(=O)c1ccc2c(c1)N(Cc1ccccc1F)C(=O)c1ccccc1S2(=O)=O (stereo not drawn),"inconclusive: 3.98 µM [inhibitor, single point]",,
CCOc1ccc(C2CC(=O)Nc3c2c(C)nn3CC(=O)O)c(OCC)c1C (stereo not drawn),,,inactive: -14.6%
O=C(Cc1ccc(N2CCC(NCCc3ccc(C(F)(F)F)cc3)CC2)cc1)NCc1ccccn1,"inconclusive: 14.1 µM [inhibitor, single point]",,
COCc1ccc2c(c1)c(OC(C)(C)C(=O)NC1CC1)nn2Cc1ccccc1,,inactive [at 44.1 µM],
COc1cc(CNC(=O)CSCc2nc3cccnc3n2C2CCCCC2)cc(OC)c1OC,"inconclusive: 11.2 µM [inhibitor, single point]",,
COc1ccc(CC(=O)NC2CCN(c3nnc4cccc(C)n34)CC2)cc1,"inconclusive: 0.891 µM [inhibitor, partial curve, poor fit]",,
CC(C)c1nc2nccc(-c3ccsc3)n2n1,,,inactive: -9.03%

SMILES,Potency,outcome,"activity, negative = inhibition"
Cc1ccccc1NCc1cccn1-c1nnc(N2CCOCC2)s1,"inconclusive: 8.91 µM [inhibitor, partial curve, poor fit]",,
COc1ccc(C2(C(=O)N3CCCC(CO)CCNC(=O)CC3)CC2)cc1 (stereo not drawn),"inconclusive: 17.8 µM [inhibitor, single point]",,
COc1ccc(-c2cc(N3CCC(NC(=O)c4ccc(C#N)cc4)C3)n[nH]2)cc1 (stereo not drawn),,,inactive: -6.25%
CN(C)Cc1nnc(C2CCN(C(=O)c3cn[nH]c3-n3cnnn3)CC2)n1C,,,inactive: -0.55%
CC(C)OCCCn1c(SCC(=O)Nc2ccc(F)cc2)nc2c(sc3ccccc32)c1=O,"inconclusive: 12.6 µM [inhibitor, single point]",,
CCC(=O)N1c2ccccc2CC1C(=O)NCCN1CCN(c2cccc(C)c2C)CC1 (stereo not drawn),"inconclusive: 7.94 µM [inhibitor, partial curve, poor fit]",,
O=C(CSc1nc(-c2ccccc2)[nH]c1-c1ccccc1)Nc1ccc2c(c1)OCO2,"inconclusive: 10 µM [inhibitor, single point]",,
CNC(=O)Cn1nc(C(=O)N2CCCC(CO)(CC3CC3)C2)cc1C (stereo not drawn),,,inactive: 0.985%
Cc1cccc(Nc2nc(-c3ccccc3)c3cc(C)ccc3n2)c1,"inconclusive: 11.2 µM [inhibitor, single point]",,
COc1ccccc1Cn1c(CNS(=O)(=O)c2ccc3c(c2)CCCC3)nc2cccnc21,"inconclusive: 11.2 µM [inhibitor, single point]",,
Cc1csc2nc(COc3ccc(NC(=O)COc4ccccc4F)cc3)cc(=O)n12,"inconclusive: 0.708 µM [inhibitor, partial curve]",,
CCc1ccc(N2CC(c3noc(-c4ccccc4F)n3)CC2=O)cc1 (stereo not drawn),,,inactive: 28.4%
C=CCC1(CO)CCCN(CC(=O)NCCc2ccc(Cl)cc2)C1 (stereo not drawn),"inconclusive: 7.08 µM [inhibitor, partial curve]",,
COc1ccc(NC(=O)CSc2c3c(nc4ccc(Cl)cc24)CCCC3)cc1Cl,"inconclusive: 8.91 µM [inhibitor, single point]",,
COc1ccc(N2CCN(CCCNC(=O)c3ccc4nc(CCc5ccccc5)oc4c3)CC2)cc1,"inconclusive: 15.8 µM [inhibitor, single point]",,
CCc1nc2c(c(-c3ccc(Cl)cc3)n1)CN(Cc1ccc(C)cc1)CC2,,,inactive: -17.3%
Cc1c(Cl)cccc1NC(=O)c1ccc(NC(=O)N2CCSc3ncccc32)cc1,"inconclusive: 17.8 µM [inhibitor, partial curve, poor fit]",,
N#Cc1cccc(CN2C[C@H](O)C[C@H]2c2nc(-c3ccccn3)no2)c1,,,inactive: 9.29% [at 44.1 µM]
CCc1c(C)sc2c1CCN(C(=O)Nc1ccccc1C(=O)OC)C2c1ccc(F)cc1 (stereo not drawn),"inconclusive: 17.8 µM [inhibitor, single point]",,
COCCC(=O)N1CCOc2ccc(CN3CCc4ccccc4C3)cc2C1,"inconclusive: 17.8 µM [inhibitor, single point]",,
CN(C)CCNC(=O)C[C@@H]1O[C@H](CNS(=O)(=O)c2ccc(Cl)cc2)[C@@H](O)[C@H]1O,,,inactive: 12.5%
